Assay results as given in PubChem BioAssay AID485281 (National Center for Advancing Translational Sciences (NCATS), 2010).
“And” between values parts separate entries of the source, which are not always exact repeats. Equal values may be shown once. The campaign covered roughly 350,000 compounds. About 260 (0.074%) were called active. Inconclusive results, whose numbers are uncertain, are shown with a selection of clear calls. The call rests on the fitted dose curve; in most records, active means well fitted inhibition curve with a large enough effect; inconclusive means small, poorly fitted or top-dose-only effect; inactive means no such curve, though single readings can be large or run the other way. A potency beside an inconclusive call is a rough fit, not a confirmed value.

Target: Ferritin light chain (Equus caballus) (UniProt P02791)
Sequence of UniProt P02791 (P02791 whole entry, looked up): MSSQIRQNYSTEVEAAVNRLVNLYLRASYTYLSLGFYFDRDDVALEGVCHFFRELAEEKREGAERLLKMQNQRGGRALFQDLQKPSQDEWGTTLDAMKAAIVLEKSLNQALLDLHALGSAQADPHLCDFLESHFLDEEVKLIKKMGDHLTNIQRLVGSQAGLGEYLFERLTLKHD
Experiment: qHTS Assay for Identification of Novel General Anesthetics; further: nearly all actives have a fitted effect of over 20% in size
Settings: apoferritin/1-aminoanthracene competitive binding, fluorescence; activity change, negative = displacement: at 77.5 µM (top of the series)
Summary of the method: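 Steps: apoferritin (10 uM) was premixed with half-saturated 1-AMA in PBS, compounds were pin-transferred, plates stood 10 min at room temperature, fluorescence was read at 380/535 nm, and curves were fitted with a Hill equation.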
On the % scale 0 is the no-effect control and ±100 the full control effect; potency means the concentration at half of the fitted maximal effect; tags describe the fitted curve by direction and shape.

SMILES | Potency | activity change, negative = displacement
CCCN(CCC)C(=O)c1cc(-c2ccc3c(c2)OCO3)nc2ccccc12 | inconclusive: 50.1 µM [inhibitor, partial curve, poor fit] | 
COc1ccc(CCC(=O)Nc2ccc(Br)cn2)cc1 | inconclusive: 28.2 µM [inhibitor, single point] | 
C/C(Cl)=C/CSc1nn2c(=O)c3ccccc3nc2s1 | inconclusive: 31.6 µM [inhibitor, partial curve] | 
O=C(CN1CCC(n2nnc3ccccc32)CC1)Nc1ccc2c(c1)CCC2 | inconclusive: 50.1 µM [inhibitor, single point] | 
COc1ccc(OC)c(NC(=O)c2cnc(Nc3ccc(C)c(Cl)c3)c3ccccc23)c1 | inactive | 
Cc1cccc(NC(=O)Cn2nnc(C(=O)NCc3ccco3)c2N)c1 | inconclusive: 3.55 µM [inhibitor, full curve] and inconclusive: 11.2 µM [inhibitor, partial curve] | 
CC(=O)NC1Sc2ccccc2N=C1c1ccccc1 (stereo unspecified) | inconclusive: 31.6 µM [inhibitor, partial curve] | 
CCOC(=O)C(C)N1C(=O)S/C(=C/c2cc(C)n(-c3ccccn3)c2C)C1=O (stereo unspecified) | inconclusive: 31.6 µM [inhibitor, single point] | 
COC(=O)c1sccc1NC(=O)Cc1ccc(Br)cc1 | inactive | 
Cc1c(CCO)c(=O)n(-c2ccccc2)n1S(=O)(=O)c1c(Cl)cc(Cl)cc1Cl | inconclusive: 28.2 µM [inhibitor, partial curve] | 
COC(=O)[C@@]1(Cc2ccc(F)cc2)[C@H]2c3cc(C(=O)N(C)C)n(Cc4ccc(C)o4)c3C[C@H]2CN1C(=O)c1ccccc1 | inactive | 
CCCOC(=O)CSc1nnc(-c2ccc(Cl)cc2Cl)o1 | inconclusive: 31.6 µM [inhibitor, partial curve] | 
CCCCS(=O)(=O)c1oc(-c2cccs2)nc1S(=O)(=O)c1ccc(F)cc1 | inconclusive: 35.5 µM [inhibitor, partial curve] | 
Cc1ccc(NC(=O)OCc2cccs2)cc1 | inconclusive: 44.7 µM [inhibitor, single point] | 
COc1ccc(Br)cc1/C(C)=N/NC1=NCCN1 | inactive | 
CCOC(CNC(=O)c1ccc(N2CCc3ccccc32)c([N+](=O)[O-])c1)OCC | inconclusive: 35.5 µM [inhibitor, partial curve] | 
COc1cccc(C(=O)Nc2ccc(C(=O)c3ccccc3)cc2)c1 | inconclusive: 17.8 µM [inhibitor, partial curve] | 
Cc1cccnc1NC(=O)c1ccc(Cl)c(S(=O)(=O)N2CCCCCC2)c1 | inconclusive: 39.8 µM [inhibitor, single point] | 
COC(=O)c1ccccc1NC(=O)C1CCCCC1C(=O)O (stereo unspecified) | inactive | 
CCOc1cc(/C=C2\NC(=O)NC2=O)ccc1OC(C)C(=O)O (stereo unspecified) | inactive | 
CCOc1ccc(NS(=O)(=O)c2ccc(NC(=S)NC(=O)CC(C)C)cc2)cc1 | inconclusive: 15.8 µM [inhibitor, partial curve] | 
CN(C)c1ccc(C=Nc2ccc(N(C)C)cc2)cc1 | inactive | 
COC(=O)Cc1nnc(SCC(=O)Nc2ccccc2)c2ccccc12 | inactive | 

SMILES | Potency | activity change, negative = displacement
Cc1cc(C(=O)COC(=O)c2ccc(O)cc2)c(C)n1CC1CCCO1 (stereo unspecified) | inconclusive: 56.2 µM [inhibitor, single point] | 
[O-][N+]1=c2ccc(Nc3ccccc3)cc2=NC12CCCCC2 | inconclusive: 28.2 µM [inhibitor, partial curve] | 
O=C1N=C(N2CCOCC2)S/C1=C\c1cccs1 | inactive | 
C/C(CC1CC2=C(CC1(C)C)C(C)(C)CCC2)=N\NC(N)=S (stereo unspecified) | inconclusive: 31.6 µM [inhibitor, partial curve] | 
O=C(CS(=O)CC(=O)Nc1ccc(Cl)cc1)NCC1OCCc2ccccc21 (stereo unspecified) | inconclusive: 20 µM [inhibitor, partial curve] | 
Cc1noc(N)c1C(=O)Nc1ccc(C(C)(C)C)cc1 | inconclusive: 35.5 µM [inhibitor, partial curve] | 
O=C(Oc1c(Cl)cc(Cl)c2cccnc12)c1ccco1 | inconclusive: 22.4 µM [inhibitor, partial curve] | 
CCOc1cccc(C(=O)N(Cc2cccc(F)c2)C2CCS(=O)(=O)C2)c1 (stereo unspecified) | inactive | 
CCc1nnc(NC(=O)c2ccc3ccccc3n2)s1 | inconclusive: 25.1 µM [inhibitor, partial curve] | 
Cc1ccc(NC(=O)c2ccc(S(=O)(=O)N3CCC(C)CC3)cc2)cc1 | inconclusive: 15.8 µM [inhibitor, partial curve] | 
COc1ccc(C(=O)C[n+]2ccc(N(C)C)cc2)cc1 | inactive | 
COc1cccc(C(C(=O)NC2CCCCC2)N(C(=O)c2cccs2)c2ccc3c(c2)OCO3)c1 (stereo unspecified) | inactive | 
O=C(CNC(=O)c1cccc(Br)c1)N/N=C/c1cccs1 | inconclusive: 12.6 µM [inhibitor, partial curve] | 
CN(C)Cc1c(C(=O)N/N=C/c2cccc(OCc3c(F)cccc3Cl)c2)nnn1-c1nonc1N | inactive | 
Cc1ccc(NC(=O)Cn2sc3nc(C)cc(C)c3c2=O)c(Cl)c1 | inactive | 
CCN1CCc2c(sc(NC(=O)Nc3ccc(Cl)c(Cl)c3)c2C(N)=O)C1 | inactive | 
CCC1CCC/C1=N\NC(=O)c1cc(C)[nH]n1 (stereo unspecified) | inconclusive: 56.2 µM [inhibitor, single point] | 
COc1ccc(C(=O)OCC(=O)NCc2ccco2)cc1OC | inactive | 
Oc1ccccc1/C=N/NC(=S)NCCc1ccccc1 | inactive | 
O=C(O)c1ccc2c(c1)C(=O)N(NC(=O)c1ccccc1)C2=O | inactive | 
CC(=O)c1cccc(CN2CCC(C(=O)Nc3ccc(-c4cccc(C)c4)cc3)CC2)c1 | inconclusive: 14.1 µM [inhibitor, partial curve] | 
COC(=O)NC(/C(C(=O)OC)=C(\C)NCc1ccccc1)c1ccc2ccccc2c1 (stereo unspecified) |  | inactive: 141% [at 15.3 µM]
FC(F)Oc1ccc(N=C2SCC3CCCCN23)cc1 (stereo unspecified) | inconclusive: 31.6 µM [inhibitor, partial curve] | 
